According to the supplement of paper PMC4967469:
A lower IC50 marks a more sensitive line; fits outside the tested doses are given as limits. AUC, from the same fit, is the share of area under the viability curve across the 256-fold dose range; the more sensitive the line, the further below 1. For part of these data: Where the top dose is marked as inferred, it is not printed in the source and was worked back from the curve model. For part of these data: Drugs with an entry number were screened twice under separate entries, and the two screens often disagree.

Key:
Experiment in all cases: Viability of human cancer cell lines after 72 h of drug (GDSC screen)
LFM-A13 = compound: C/C(O)=C(\C#N)C(=O)Nc1cc(Br)ccc1Br [LFM-A13]; conditions: top dose 16 µM; top dose inferred
Experimental: (§1)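 Human cancer cell lines in 384-well plates, medium with 10% serum, drug for 72 h over a 256-fold dose range (nine 2-fold or five 4-fold steps up to the top dose). Adherent lines were fixed and stained with the nucleic acid dye Syto60, suspension lines read with resazurin; signal relative to control wells, capped at 0 and 100%. One two-parameter sigmoid per drug and line, fitted in a mixed model over all curves with the slope shared within a line.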

Bicalutamide = compound: CC(O)(CS(=O)(=O)c1ccc(F)cc1)C(=O)Nc1ccc(C#N)c(C(F)(F)F)c1 [Bicalutamide]; conditions: top dose inferred
Experimental: as §1

AUY922 = compound: CCNC(=O)c1noc(-c2cc(C(C)C)c(O)cc2O)c1-c1ccc(CN2CCOCC2)cc1 [AUY922]; conditions: top dose 0.256 µM; top dose inferred
Experimental: as §1

GNF-2 = compound: NC(=O)c1cccc(-c2cc(Nc3ccc(OC(F)(F)F)cc3)ncn2)c1 [GNF-2]; conditions: top dose 1.28 µM; top dose inferred
Experimental: as §1

Gemcitabine = compound: Nc1ccn([C@@H]2O[C@H](CO)[C@@H](O)C2(F)F)c(=O)n1 [Gemcitabine]; conditions: top dose 1.024 µM
Experimental: as §1

TW-37 = compound: CC(C)c1ccccc1Cc1cc(C(=O)Nc2ccc(S(=O)(=O)c3ccccc3C(C)(C)C)cc2)c(O)c(O)c1O [TW-37]; conditions: top dose 5 µM
Experimental: as §1

KIN001-270 = compound: Cc1ccc(Nc2cc(-c3cccc(N4C(=O)c5ccccc5C4=O)c3)ncn2)cc1NS(C)(=O)=O [KIN001-270]; conditions: top dose 20 µM; top dose inferred
Experimental: as §1

MP470 = compound: S=C(NCc1ccc2c(c1)OCO2)N1CCN(c2ncnc3c2oc2ccccc23)CC1 [MP470]; conditions: top dose 20 µM; top dose inferred
Experimental: as §1

Nilotinib = compound: Cc1cn(-c2cc(NC(=O)c3ccc(C)c(Nc4nccc(-c5cccnc5)n4)c3)cc(C(F)(F)F)c2)cn1 [Nilotinib]; conditions: top dose 2 µM
Experimental: as §1

T0901317 = compound: O=S(=O)(c1ccccc1)N(CC(F)(F)F)c1ccc(C(O)(C(F)(F)F)C(F)(F)F)cc1 [T0901317]; conditions: top dose 10.24 µM; top dose inferred
Experimental: as §1

[1] = top dose 1.024 µM, screen: GDSC drug entry 150
[2] = top dose 10 µM, screen: GDSC drug entry 1502

Row | Cell Line | AUC (LFM-A13) | IC50 (LFM-A13) [nM] | AUC (Bicalutamide; [1]) | IC50 (Bicalutamide; [1]) [nM] | AUC (AUY922) | IC50 (AUY922) [nM] | AUC (GNF-2) | IC50 (GNF-2) [nM] | AUC (Gemcitabine) | IC50 (Gemcitabine) [nM] | AUC (TW-37) | IC50 (TW-37) [nM] | AUC (Bicalutamide; [2]) | IC50 (Bicalutamide; [2]) [nM] | AUC (KIN001-270) | IC50 (KIN001-270) [nM] | AUC (MP470) | IC50 (MP470) [nM] | AUC (Nilotinib) | IC50 (Nilotinib) [nM] | AUC (T0901317) | IC50 (T0901317) [nM]
1 | NK-92MI (lymphoid neoplasm, suspension) | 0.963 | > 16000 | 0.988 | > 1020 | 0.583 | 26.6 | 0.982 | > 1280 | 0.22 | 10.5 | – | – | – | – | – | – | – | – | – | – | – | –
2 | SKM-1 (haematopoietic neoplasm, suspension) | – | – | – | – | – | – | 0.953 | > 1280 | – | – | 0.514 | 342 | 0.96 | > 10000 | – | – | – | – | – | – | – | –
3 | THP-1 (acute myeloid leukaemia, suspension) | 0.99 | > 16000 | – | – | – | – | 0.988 | > 1280 | – | – | 0.741 | 1400 | – | – | 0.975 | > 20000 | 0.79 | 7960 | – | – | – | –
4 | TOV-112D (ovary, adherent) | 0.981 | > 16000 | 0.967 | > 1020 | 0.452 | 11.9 | – | – | 0.052 | < 4 | 0.437 | 211 | 0.928 | > 10000 | 0.921 | > 20000 | 0.728 | 5570 | 0.984 | > 2000 | 0.944 | > 10200
5 | TT2609-C02 (thyroid, adherent) | 0.953 | > 16000 | 0.968 | > 1020 | 0.455 | 12 | – | – | 0.103 | < 4 | 0.496 | 304 | 0.985 | > 10000 | 0.977 | > 20000 | 0.959 | > 20000 | 0.971 | > 2000 | 0.983 | > 10200
6 | TT (thyroid, adherent) | 0.978 | > 16000 | 0.983 | > 1020 | 0.965 | > 256 | – | – | 0.98 | > 1020 | 0.629 | 817 | 0.972 | > 10000 | 0.982 | > 20000 | 0.897 | > 20000 | 0.968 | > 2000 | 0.982 | > 10200
7 | U251 (glioma, adherent) | 0.972 | > 16000 | 0.985 | > 1020 | 0.678 | 49 | – | – | 0.346 | 24.5 | 0.463 | 249 | 0.975 | > 10000 | 0.936 | > 20000 | 0.807 | 9660 | 0.988 | > 2000 | 0.965 | > 10200
8 | U-118-MG (glioma, adherent) | 0.976 | > 16000 | 0.984 | > 1020 | 0.538 | 20.7 | – | – | 0.822 | 722 | 0.464 | 246 | 0.972 | > 10000 | 0.981 | > 20000 | 0.948 | > 20000 | 0.973 | > 2000 | 0.969 | > 10200
